# Experimental data taken from article PMC4336329 (PLoS ONE, 2015).
# Hit rate of the full screen: of about 310,000 compounds, about 2,200 (0.71%) showed an effect of 50% or more. Effects have a minus sign here. Some of the results follow.
# Biological target: human ether-à-go-go-related gene (hERG) potassium channel (human, UniProt Q12809)
# Test: primary screen, population patch clamp on CHO cells stably expressing hERG
# Chain of human ether-à-go-go-related gene (hERG) potassium channel (Q12809 whole entry, looked up): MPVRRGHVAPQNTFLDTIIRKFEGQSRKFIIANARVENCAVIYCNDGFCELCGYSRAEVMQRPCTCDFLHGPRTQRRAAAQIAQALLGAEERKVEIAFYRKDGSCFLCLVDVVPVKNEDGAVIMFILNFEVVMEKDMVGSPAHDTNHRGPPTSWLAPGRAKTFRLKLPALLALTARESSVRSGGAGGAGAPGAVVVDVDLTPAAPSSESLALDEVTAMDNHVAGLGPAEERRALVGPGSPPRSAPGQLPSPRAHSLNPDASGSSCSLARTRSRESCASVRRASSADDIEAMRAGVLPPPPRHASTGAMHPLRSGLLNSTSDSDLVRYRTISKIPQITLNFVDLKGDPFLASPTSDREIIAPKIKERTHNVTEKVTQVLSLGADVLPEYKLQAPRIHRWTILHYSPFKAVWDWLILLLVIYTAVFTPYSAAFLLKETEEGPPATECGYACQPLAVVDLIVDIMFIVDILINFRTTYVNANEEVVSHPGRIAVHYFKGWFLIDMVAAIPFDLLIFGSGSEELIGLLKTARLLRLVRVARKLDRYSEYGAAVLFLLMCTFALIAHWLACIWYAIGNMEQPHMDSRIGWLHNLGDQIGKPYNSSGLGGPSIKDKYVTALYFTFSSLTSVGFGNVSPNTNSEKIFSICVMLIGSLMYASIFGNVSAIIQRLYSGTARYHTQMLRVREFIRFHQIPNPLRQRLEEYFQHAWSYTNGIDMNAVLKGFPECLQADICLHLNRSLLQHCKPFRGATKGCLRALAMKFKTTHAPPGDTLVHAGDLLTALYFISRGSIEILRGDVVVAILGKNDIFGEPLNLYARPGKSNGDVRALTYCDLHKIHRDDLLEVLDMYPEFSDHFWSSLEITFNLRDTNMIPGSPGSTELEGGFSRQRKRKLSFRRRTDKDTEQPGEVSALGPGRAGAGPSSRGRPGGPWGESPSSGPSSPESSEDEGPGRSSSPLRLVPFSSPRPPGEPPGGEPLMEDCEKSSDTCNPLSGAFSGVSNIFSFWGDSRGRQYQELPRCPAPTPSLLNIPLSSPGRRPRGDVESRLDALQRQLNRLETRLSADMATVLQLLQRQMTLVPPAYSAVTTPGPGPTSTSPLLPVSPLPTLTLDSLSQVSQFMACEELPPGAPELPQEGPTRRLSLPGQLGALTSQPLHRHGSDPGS
row,Structure (SMILES),"hERG current change (%, negative = inhibition) at 1uM [%]"
1,COc1cccc(NC(=O)COC(=O)CCS(=O)(=O)c2ccc(C)cc2)c1,12.1
2,COc1ccc(Nc2nc(C)c(-c3ccccc3)s2)cc1,2.24
3,CCC(C)(C)NC(=O)C(c1cccc(OC)c1OC)N(C(=O)CCC(=O)Nc1cc(C)on1)C(C)C (stereo not drawn),13.1
4,O=C(O)c1ccc2c(c1)S(=O)(=O)N=C1CCCCCN12,15.6
5,ONC(=Nc1ccccc1Cl)c1c(F)cccc1F,10.5
6,COc1ccc(-c2[nH]ncc2CN2CCN(C(=O)c3cccs3)CC2)c(F)c1,3.62
7,Nc1[nH]ncc1N=Nc1ccc(Cl)cc1,16.1
8,C=CCn1c(SCc2ccccc2C#N)nnc1-c1cc(Br)ccc1O,8.74
9,COc1ccccc1-c1nc(C#N)c(N2CCCCCC2)o1,5.38
10,COc1ccc(CCCC(=O)NCCc2ccccc2)c(C)c1,15.3
11,Cn1c(SCC(=O)Nc2ccc(Cl)cc2F)nnc1-c1ccco1,-0.388
12,CN(C)C(CNC(=O)c1cccc(OC(F)F)c1)c1ccco1 (stereo not drawn),6.93
13,O=C(/C=C/c1cccc([N+](=O)[O-])c1)NCc1ccccc1,5.81
14,COc1ccc(CNn2c(-c3cccc(C)c3)nc3ccccc3c2=O)cc1OC,-54.8
15,Cc1cc(C)cc(N(C(=O)c2ccc3c(c2)OCO3)C2C=CS(=O)(=O)C2)c1 (stereo not drawn),8.67
16,CCOC(=O)Nc1ccc([N+](=O)[O-])cc1OC,11.7
17,COc1ccc(Cl)cc1NC(=O)[C@@H]1CCCN1C(=O)c1cccs1,11.2
18,Cc1nnc(NS(=O)(=O)c2ccc(Br)cc2)s1,18.1
19,COc1ccc(NS(=O)(=O)c2ccc(N3CCOCC3)c(NC(=O)c3ccc(OC)cc3)c2)cc1,5.83
20,CC(C)c1ccc(/C=C(\c2nc3ccccc3[nH]2)S(=O)(=O)c2ccccc2)cc1,15.3
21,Cl.OC(COc1ccc(Cl)cc1Cl)CN1CCc2ccccc2C1 (stereo not drawn),3.76
22,CN1CCN(C(=O)C2CCC(C)(C(=O)O)C2(C)C)CC1 (stereo not drawn),6.21
23,COc1ccccc1N1CCN(c2cc(C)nc3nc(C)nn23)CC1,-32.6

row,Structure (SMILES),"hERG current change (%, negative = inhibition) at 1uM [%]"
1,O=c1cc[nH]c2cc(C(F)(F)F)ccc12,19.7
2,CC(C)CNC(=O)c1cccc(NC(=O)c2ccccc2-c2ccccc2C(=O)O)c1,3.39
3,Cc1cccc(CC(Cc2nc3ccccc3[nH]2)c2nc3ccccc3[nH]2)c1 (stereo not drawn),10.5
4,CN1CCN(Cc2nc3ccccc3n2C)CC1CCO (stereo not drawn),10.4
5,COc1ccccc1CNC(=O)C/C(C)=N/NC(=O)Cc1ccc(Cl)cc1,7.97
6,CCCCCC(=O)Nc1cccc(C2=NOC3(C2)C[C@H](C(N)=O)N(C(=O)CC)C3)c1 (stereo partly drawn),7.78
7,CSc1ccccc1NC(=O)c1cc2ncc(Br)cn2n1,5.29
8,CC1(c2ccccc2)NCCN2C(=O)CSC21.Cl (stereo not drawn),14.2
9,CCC1CCCCN1C(=O)Cn1c(=O)n(CCCC(=O)NCc2ccco2)c(=O)c2sccc21 (stereo not drawn),13.3
10,O=C(NCCSc1ncc(-c2ccc(F)cc2)[nH]1)c1ccc2c(c1)OCO2,3.92
11,COc1ccc(-c2nnc(SCC(=O)NC3CCCc4ccccc43)n2N)cc1 (stereo not drawn),2.39
12,CNC(=O)C(=O)NCC1OCCN1S(=O)(=O)c1ccc2c(c1)OCCO2 (stereo not drawn),14.7
13,COc1cnc(SCc2ccc(Cl)c(Cl)c2)nc1Cl,-5.73
14,CCOC(=O)c1ccc(NC(=O)Cn2nnc(-c3ccc(C)cc3)n2)cc1,4.07
15,CCOc1nc(NCCO)nc(Nc2ccc([N+](=O)[O-])cc2)n1,5.3
16,COc1ccc(S(=O)(=O)N2CCOC2CNC(=O)C(=O)NCCc2ccccc2)cc1OC (stereo not drawn),9.48
17,COc1ccccc1N1CCN(C(=O)Cn2c(=O)[nH]c3ccsc3c2=O)CC1,8.27
18,O=C1OCCC1Sc1nc2ccccc2[nH]1 (stereo not drawn),12.3
19,Cc1cccc(NC(=S)NC23CN4CN(CN(C4)C2)C3)c1C,2.71
20,CSCCC(NC(=O)c1cc(S(=O)(=O)N2CCOCC2)ccc1F)c1nc2ccccc2[nH]1 (stereo not drawn),14.1
21,Cc1ccccc1NC(=O)c1cc(S(=O)(=O)Nc2cccc(C(=O)O)c2)ccc1Cl,16.5
22,CC(Sc1ncnc2ccccc12)C(=O)Nc1ccc2c(c1)OCO2 (stereo not drawn),7.54
